Data published in the supplement of paper PMC3334620.
Whole data set: some 33,000 sequences, median “E-score (-0.5 to 0.5)” near -0.035, cut for the highest 2% near 0.34. The list shows a part of the results.

Target: T1, Mot3 (UniProt P54785)
T1 sequence: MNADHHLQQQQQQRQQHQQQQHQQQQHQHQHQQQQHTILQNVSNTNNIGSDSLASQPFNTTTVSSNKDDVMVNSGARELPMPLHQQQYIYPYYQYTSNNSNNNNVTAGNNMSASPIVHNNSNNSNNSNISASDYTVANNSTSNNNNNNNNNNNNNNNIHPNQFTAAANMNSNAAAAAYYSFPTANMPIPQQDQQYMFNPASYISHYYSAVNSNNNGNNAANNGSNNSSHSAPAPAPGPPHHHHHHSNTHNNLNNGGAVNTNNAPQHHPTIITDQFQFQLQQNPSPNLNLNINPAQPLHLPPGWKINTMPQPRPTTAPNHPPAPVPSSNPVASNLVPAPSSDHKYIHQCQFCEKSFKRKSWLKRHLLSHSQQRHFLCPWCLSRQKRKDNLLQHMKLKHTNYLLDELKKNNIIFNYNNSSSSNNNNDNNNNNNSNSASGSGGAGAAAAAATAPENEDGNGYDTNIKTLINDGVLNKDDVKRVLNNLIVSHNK
Test: PBM E-score (8-mer binding enrichment) (E-score (-0.5 to 0.5)); higher = stronger / more preferred TF binding; most listed sequences are background and not binding sites
Conditions: protein concentration: 200 nM; construct: GST-full length
Outline: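 Universal all-10-mer Agilent arrays, double-stranded by primer extension on fresh or once-stripped slides, were probed with about 100-200 nM GST-tagged yeast transcription factors made by PURExpress. Fluorescent anti-GST detected bound protein, and masliner normalised the scans. E-scores from the Universal PBM Analysis Suite were given to each ungapped eight-base word pooled with its reverse complement.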

Sequence	PBM E-score
CCAGGGGC	-0.137
CTCCCCCA	-0.217
CTGGTGTC	-0.212
CTCGACAG	-0.12
AAGGAGCA	-0.0482
CACAATCC	0.0246
ACTCACGA	0.0879
ATTTTTAG	-0.0236
GACACTGC	-0.0476
CCATAACC	-0.127
GAGCTGCC	-0.0189
CGGAAAGA	-0.166
CCAAACTA	0.129
AACGAACT	-0.111
TCGTCGCA	-0.141
ACAACGAG	0.0604
ATGCGGTA	-0.239
TATTACAA	0.297
CCGTCTGC	-0.129
AAATGTCG	0.107
AGCCAAAT	-0.0958
AATCTCAT	0.119
CAGTCACA	0.181
CTAGGGGA	-0.216
CGAATTCA	-0.114

Sequence	PBM E-score
CCTACGTA	0.257
CTGGATCA	-0.0828
AAATGGCG	0.0242
AGCCAGGC	0.24
CGGCAATA	0.0917
TAGAACTA	-0.0352
ACGATAGT	0.144
CTGGGGGC	-0.151
ATCGGTTG	-0.0221
ATGAGGCG	-0.119
AGCAACGG	-0.185
AGCAATGA	-0.185
GGAGTTCA	-0.0454
TGATCACA	-0.0455
CAGGATTC	0.0484
GCACCTTA	0.0482
ACTTAGAG	-0.224
CGGACTAC	-0.0735
CAGCAGGC	0.315
CGGCCACG	-0.196
CGATCACG	0.0607
CGCGAAGC	0.0278
ACAGTCTC	-0.109
AGCGCAGG	-0.005
ACGTCCAT	0.00297

Sequence	PBM E-score
AGGTGATC	-0.162
GAGGGTAC	-0.16
AGCCGGTG	-0.171
ATCCTACC	-0.0465
CTCGCAGA	-0.354
ACGTATTA	0.248
GGGTTACA	0.0512
CACTCGTA	0.0815
TCCGCTCA	-0.00098
ATTGAAAC	0.0723
ACTAATGA	-0.00441
GGAATTGA	0.0808
CCGGATCC	-0.266
CCCAGTCA	-0.204
GATAAAGC	-0.0526
AAGCATGT	0.285
CAGCGGTC	-0.18
ACTTCCGG	0.0138
ACCTGAAA	0.188
AAGGGAGC	-0.234
AGTACATG	0.289
GTAGTCGA	0.0317
ATTACTGG	0.0729
ACTATGTG	0.0709
ACCTGACA	0.105

Sequence	PBM E-score
GGGTGTAC	-0.0148
CTCAGCGA	-0.109
CCTCGACC	-0.126
AGCAAGCC	-0.225
CCGGATGA	-0.198
AAGCGTGA	0.00227
ATGAGGTC	-0.181
AGTGGTCA	-0.356
CAAACGAA	0.0627
ACTCAAAG	0.077
CCACCCGG	-0.108
AACAAACT	0.0983
AGACAAAC	0.0316
CGTCGAAC	-0.00595
AATAGGCC	-0.0184
AACAGGTA	0.269
CTAGTGGC	-0.282
ACATGCAG	0.232
CTACCGAG	-0.131
CTTTAATA	0.131
CGCGGCAG	-0.035
GACAAAGC	-0.0144
AATGAGGG	-0.146
CTTGCACA	0.0256
CCCACGTC	-0.187

Sequence	PBM E-score
GATCGAGC	-0.2
GACCCCTA	-0.106
ACTGTTTC	-0.107
AGCCCGAC	-0.185
ACCTATCT	0.152
AAATTTGG	0.135
ATGAGTCC	-0.159
ATAAGCGC	-0.0498
CAGTTCCG	-0.282
CTGCACTC	-0.271
AGACCCCG	-0.188
AGAGCCAT	-0.142
GCCAGTCC	-0.315
CGTCTAAG	-0.145
AACCTATA	0.277
AGCTGGTC	-0.126
CTTGTCGA	0.0845
CCAAGACG	-0.236
ACTGTCCA	0.122
ACGCGTAT	0.286
GGAGTAGA	-0.144
TATCGATA	-0.0819
ACCTGGAT	-0.0359
AGCCTAAG	0.0457
CACACAGA	0.129

Sequence	PBM E-score
GTTGTCTA	0.19
ATCGACAG	-0.125
CTGAGGCA	0.257
AACGATAT	0.175
CGTAAAAG	0.183
CGATGCGC	-0.0409
CAACTCAA	0.11
ATACTATA	-0.0318
AAAATCCG	0.00192
GCGTCTGA	-0.0243
AAAATCGA	-0.119
GCGTCAAC	0.109
CACTAAGC	-0.25
AGCTTGAT	-0.114
ATAGCAAG	0.0209
AGTGCCGG	0.0259
AACCGTGT	0.294
ACGAGACG	-0.00429
AAACCCAT	0.109
GTTTGCCA	-0.0311
ATGATGGG	-0.139
CGGGGACA	-0.141
CACGCAAG	0.116
ACTGCACC	-0.0741
GTTAGTCA	0.044

Sequence	PBM E-score
CGATCTTA	-0.0275
ACGGTCCT	-0.195
CGAAGAGC	-0.106
TTACGGAA	0.0689
TAGTCAAA	0.015
CATTGAGC	-0.194
CCGCGTAA	0.336
ATGCGCTA	-0.0896
CTTAAGAC	-0.0312
AATTATAT	0.198
AAAGTGGG	-0.0287
CAGCTAGC	-0.206
AGAACAAA	0.175
CGCGCGAG	-0.219
AGTCCTGA	-0.179
GCTCTATA	-0.0578
CGGTTTAC	0.134
TTTAGAAA	0.118
CGATCTCC	-0.257
CTGACTGA	-0.0202
AATGGACT	-0.116
CCTTCCCC	-0.107
